Hit rate of the full screen: of about 150,000 compounds, about 540 (0.36%) showed an effect of 50% or more. The list shows a part of the results.
Each compound was assayed on Plasmodium falciparum (assay: Primary screen in NF54 nanoGlo assay, in single point, at 2uM, 72h; a lower Z score goes with more inhibition). Conditions: timepoint 72 hour.
Type: functional, Erythrocyte
`NC(=O)c1cncc(NCC[C@H]2CCCOC2)n1` was tested, and the “% Inhibition” value was -19% and the Z score was 1.96.
For `c1csc(CNc2nnc([C@@H]3Cc4ccccc4O3)o2)c1`, the “% Inhibition” value was -12% and the Z score was 1.5.
With `Cc1ccn(CC(=O)Nc2c(C)nn(C)c2C)c(=O)c1C#N` the “% Inhibition” value was -4% and the Z score was 0.71.
`Cn1c(C(=O)N(CC(=O)O)C2CC2)cc2cc(C(F)(F)F)ccc21` was tested, and the “% Inhibition” value was -14% and the Z score was 2.69.
For `CN(CC(F)(F)F)C(=O)C1CCCC(C(=O)O)C1` (stereo not drawn), the “% Inhibition” value was -1% and the Z score was 0.09.
In the case of `O=C(c1nc[nH]n1)N1CCN(C[C@]2(O)CCCN(CCc3ccccc3)C2=O)CC1`, the “% Inhibition” value is reported as -6% and the Z score is reported as 1.12.
In the case of `Cc1nnnn1Cc1nnc(C(C)(C)C)o1`, the “% Inhibition” value is reported as -18% and the Z score is reported as 2.65.
In the case of `Cc1cc2ncc(CCCNC(=O)CCc3c(F)cccc3Cl)cn2n1`, the “% Inhibition” value is reported as 6% and the Z score is reported as -1.16.
`C[C@H](Oc1ccc(NC(=O)C2CCC=CCC2)cc1F)C(=O)O` was tested, and the “% Inhibition” value was -12% and the Z score was 1.27.
In the case of `Cc1cc(C(=O)NC[C@@H]2CCC[C@H]2O)cnn1`, the “% Inhibition” value is reported as -11% and the Z score is reported as 1.51.
`O=S(=O)(N[C@H]1CCOC[C@@H]1O)c1ccc2c(c1)OCCCO2` was tested, and the “% Inhibition” value was -10% and the Z score was 2.03.
`CN(C)c1ccccc1NC(=O)c1ccncc1Cl` was tested, and the “% Inhibition” value was -9% and the Z score was 1.22.
For `Cc1cnc([C@@H](C)CNC(=O)Nc2cc(C3CCC3)nn2C)s1`, the “% Inhibition” value was -6% and the Z score was 0.63.
`O=C(c1ccccc1-n1cncn1)N1CC[C@@]2(CCCN(CC3CC3)C2=O)C1` was tested, and the “% Inhibition” value was -4% and the Z score was 0.78.
For `Cc1noc(C2(NC(=O)c3cccc(N(C)C)c3)CCOCC2)n1`, the “% Inhibition” value was -3% and the Z score was 0.4.
In the case of `CCOC(=O)C(C)(C)C(=O)Nc1cc(S(C)(=O)=O)ccc1Cl`, the “% Inhibition” value is reported as -16% and the Z score is reported as 2.73.
`O=S(=O)(CCCCC(F)(F)F)NCCNc1ccccc1` was tested, and the “% Inhibition” value was -5% and the Z score was 0.63.
For `CCc1[nH]c2ccc(CNC(=O)CCc3c(C)nn(C)c3C)cc2c1C`, the “% Inhibition” value was -10% and the Z score was 1.27.
With `Cc1oc(C2CCN(C(=O)c3ccc(C(C)C)cc3)CC2)nc1C(=O)N1CCOCC1` the “% Inhibition” value was -8% and the Z score was 1.24.
With `CCC(=O)N1CCC[C@@](NCCN2CCOCC2)(c2nnnn2C2CCCC2)C1` the “% Inhibition” value was 11% and the Z score was -1.89.
`CC(CN1CCOCC1)C(C)OC(=O)c1ccc(O)cc1O` (stereo not drawn) was tested, and the “% Inhibition” value was -13% and the Z score was 1.77.
`Cc1ccc(S(=O)(=O)NCC[C@H](O)C2CCOCC2)cc1` was tested, and the “% Inhibition” value was -11% and the Z score was 2.18.
In the case of `Cc1nccc([C@H](C)NC(=O)C2(O)CCC(C(F)(F)F)CC2)n1` (stereo partly drawn), the “% Inhibition” value is reported as 2% and the Z score is reported as -0.35.
For `c1ccc(OC[C@@H]2CCCN2c2ccc3nnc(C4CC4)n3n2)cc1`, the “% Inhibition” value was 2% and the Z score was -0.3.
`CC(C)Oc1ccnc(NC2CCCCCC2)n1` was tested, and the “% Inhibition” value was -2% and the Z score was 0.15.
For `CC(C)NC(=O)C[C@@H]1O[C@H](CNS(=O)(=O)c2ccccc2)[C@@H](O)[C@H]1O`, the “% Inhibition” value was 24% and the Z score was -2.74.
For `O=C([C@@H]1C[C@H](F)CN1S(=O)(=O)Cc1ccccc1)N1CCc2ccccc2C1`, the “% Inhibition” value was -2% and the Z score was 0.25.
In the case of `CN(C)[C@H]1CCN(CC(=O)N(Cc2cccnc2)C2CCCCC2)C1`, the “% Inhibition” value is reported as -5% and the Z score is reported as 1.
`CC(C)(C#N)c1ccc(-c2cc3nncn3c(N)n2)cc1` was tested, and the “% Inhibition” value was 3% and the Z score was -0.39.
For `CCOC1CC2(NC(=O)N(c3cscc3C)C2=O)C1(C)C` (stereo not drawn), the “% Inhibition” value was -2% and the Z score was 0.26.
In the case of `CN(C)c1nccnc1N1CCC[C@H](c2nnc(CN3CCCC3)n2C)C1`, the “% Inhibition” value is reported as -6% and the Z score is reported as 1.19.
In the case of `O=C1CCC(C(=O)N2CCCC2CC2CC3CCC2C3)CN1` (stereo not drawn), the “% Inhibition” value is reported as -7% and the Z score is reported as 1.05.
For `Clc1ccc(COc2cccc(-c3ccnc4ncnn34)c2)c(Cl)c1`, the “% Inhibition” value was -1% and the Z score was 0.15.
`CCc1ccc(OCC(=O)Nc2ccc(-c3nc4cc(CC)ccc4o3)cc2)c(-n2cnnc2)c1` was tested, and the “% Inhibition” value was -13% and the Z score was 1.7.
In the case of `CCCn1ncc(CN2CCCC23CCN(c2ncccn2)CC3)c1C`, the “% Inhibition” value is reported as -17% and the Z score is reported as 2.2.
With `O=C(NC1(c2cc(C(F)(F)F)ccc2Cl)CC1)[C@H]1CCCOC1` the “% Inhibition” value was 4% and the Z score was -0.45.
`CCOc1ccc(NC(=O)c2cn(-c3ncccc3-c3nc(C)no3)cn2)cc1` was tested, and the “% Inhibition” value was -1% and the Z score was 0.14.
In the case of `CC(C(=O)NCC1CCCCN(C(=O)C(C)C2CC2)C1)C1CC1` (stereo not drawn), the “% Inhibition” value is reported as 15% and the Z score is reported as -1.96.
In the case of `Cc1cc(NC[C@@H]2C[C@H](F)CN2)nc2cc3c(cc12)CCC3`, the “% Inhibition” value is reported as -16% and the Z score is reported as 1.5.
In the case of `N#Cc1nccnc1N1CCC[C@H](S(=O)(=O)N2CCOCC2)C1`, the “% Inhibition” value is reported as 5% and the Z score is reported as -0.97.
`CC(C)(C)c1ccc2c(c1)N(CC(=O)NC1CCCCCCC1)C(=O)CO2` was tested, and the “% Inhibition” value was -14% and the Z score was 2.04.
For `CCCn1cnnc1[C@H](C)Nc1nc(N)ncc1C`, the “% Inhibition” value was -11% and the Z score was 1.43.
In the case of `CN(CCNc1ncnc2onc(-c3cc(F)cc(F)c3)c12)Cc1ccccc1`, the “% Inhibition” value is reported as 1% and the Z score is reported as -0.07.
With `O=C(OCc1cccc(COC(=O)C2CCCN2c2ncccn2)c1)C1CCCN1c1ncccn1` (stereo not drawn) the “% Inhibition” value was -5% and the Z score was 0.49.
In the case of `CC(C)n1nccc1C(=O)Nc1nnc(-c2ccn(C)n2)o1`, the “% Inhibition” value is reported as -5% and the Z score is reported as 0.85.
`CC(=O)N1CCC[C@H](C(=O)N2CCCN(C(=O)Cc3cccc(F)c3)CC2)C1` was tested, and the “% Inhibition” value was 6% and the Z score was -0.73.
For `COCCn1nnc2c1CCN(C(=O)CCc1c[nH]c3ccc(C)cc13)C2`, the “% Inhibition” value was 0% and the Z score was -0.02.
With `COc1ccc(OC)c(CNC(=O)C2CCN(c3c(NC(C)=O)c(C)nn3-c3ccc(Cl)cc3)CC2)c1` the “% Inhibition” value was -3% and the Z score was 0.5.
For `CCc1cc(CNc2nccnc2C#N)[nH]n1`, the “% Inhibition” value was 4% and the Z score was -0.58.
`CCc1[nH]c2c(CNC(=O)Cn3ccc(=O)[nH]c3=O)cc(F)cc2c1C` was tested, and the “% Inhibition” value was -1% and the Z score was 0.13.
With `CN(C[C@H]1CCCCO1)C(=O)c1cccc(-c2ccc3nc[nH]c3c2)c1` the “% Inhibition” value was -1% and the Z score was 0.09.
In the case of `CCC1(CN=C(N)N(C)C)CCCCC1`, the “% Inhibition” value is reported as -6% and the Z score is reported as 0.65.
`CC1(C)C(=O)NC(=O)N1Cc1noc(-c2cc(OC(F)F)cc(OC(F)F)c2)n1` was tested, and the “% Inhibition” value was -10% and the Z score was 0.97.
With `COCc1nc(C)cc(N2C[C@@H]3OC(=O)N(C4CCN(C(C)C)CC4)[C@@H]3C2)n1` the “% Inhibition” value was 4% and the Z score was -0.6.

— ChEMBL document CHEMBL4888484, “Replenishing the malaria drug discovery pipeline: Screening and hit evaluation of the MMV Hit Generation Library 1 (HGL1) against asexual blood stage Plasmodium falciparum ,using a nano luciferase reporter read-out” (2022)
